Measured values: PubChem BioAssay AID1963576 (National Center for Advancing Translational Sciences (NCATS), 2024)
About 60 (0.1%) of roughly 46,000 compounds were called active. Another 3% or so got no clear call; they are omitted. Calls come from the whole dose curve; as a rule, active = well fitted inhibition curve with a large enough effect; inconclusive = small, poorly fitted or top-dose-only effect; inactive = no such curve, though single readings can be large or run the other way. Some of the results follow.

experiment: Primary qHTS assay for Inhibitors of ovarian cancer metastasis using an organotypic tumor microenvironment (TME) model.; note: nearly all actives have a fitted effect of over 65% in size;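 for activity change, negative = inhibition: plate controls were DMSO wells for no effect and tomatine positive control wells for full effect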; details: SKOV3ip1-GFP adhesion/invasion on 3D omental model, fluorescence; series mostly up to 45.8 µM; activity change, negative = inhibition: at the top concentration
In short: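 A 3D layer of primary human omental fibroblasts, mesothelial cells, fibronectin and collagen I, grown 48 hr, received SKOV3ip1-GFP cells in serum-free medium plus compounds at 0.36-46 umol/L. After 2 hr RT and 16 hr 37 C, fixed adherent GFP cells were counted; normalized to DMSO and tomatine.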

Activity change, negative = inhibition, inactive:
Cc1c2cnn(CC(=O)NCC(C)c3ccccc3)c(=O)c2c(C)n1Cc1cccc(Cl)c1 (configuration not stated) 4.83%
CC1Cc2cc(S(=O)(=O)NCCc3ccc(Cl)cc3)ccc2N1C(=O)C1CCC1 (configuration not stated) 0.939%
CCn1ccc2cc(S(=O)(=O)N3CCC(C(=O)NCCc4ccccc4Cl)CC3)ccc21 -0.329%
O=C(c1cc(Cc2n[nH]c(=O)c3ccccc23)ccc1F)N1CCN(C(=O)C2CC2)CC1 -0.334%
Cc1cccc(C(=O)Nc2ccc(-c3nc4ncccc4o3)cc2C)c1 23.8%
CC(C)OCCCNC(=O)c1cn(C)c2ccc(S(=O)(=O)N3CCCCCC3)cc2c1=O -4.16%
CCc1ccc(C(=O)c2cnc3ccc(F)cc3c2S(=O)(=O)c2ccccc2)cc1 -10.4%
Cc1ccc(CNC(=O)c2ccc3c(c2)c(C)c(C)n3Cc2ccccc2)o1 -21.4%
COCCOC(=O)C1=C(C)NC2=C(C(=O)CC(c3ccccc3OC)C2)C1c1cccc(O)c1 (configuration not stated) 8.03%
O=C(COc1ccccc1Cl)OCc1cc(=O)n2nc(C3CCCCC3)sc2n1 -5.21%
Cc1oc2ccc(O)c(CN3CCCC3)c2c1C(=O)Nc1ccccc1 -8.45%
CCCn1c(=O)c2sccc2n2c(CCCC(=O)NC3CCC(C)CC3)nnc12 (configuration not stated) -12.4%
Clc1ccc2c(c1)C(N1CCNCC1)=Nc1ccccc1O2 0.0498%
Cc1ccc(CNC(=O)CN2C(=O)CCn3nc(-c4ccccc4)cc32)cc1 0.788%
COc1ccccc1NC(=O)C(C)Sc1nnc2ccc3ccccc3n12 (configuration not stated) 1.03%
CCc1cccc2c(-c3ccccc3)nc(SCC(=O)Nc3ccccc3OC)nc12 -6.57%
Cc1ccc(-n2ncc(C(=O)NCc3cccs3)c2C2CCN(C(=O)OC(C)(C)C)CC2)cc1 13%
COc1ccc(OC)c(CCNC(=O)CCc2cn(Cc3cc(C)ccc3C)c3ccccc23)c1 -9.14%
CC1Cc2cc(S(=O)(=O)CCC(=O)NCc3ccc(Cl)cc3)ccc2N1C(=O)C1CC1 (configuration not stated) 5.97%
COCCOC(=O)C1=C(C)NC(=O)NC1c1cn(-c2ccccc2)nc1-c1ccccc1 (configuration not stated) 0.939%
CC(C)Nc1cc(C(F)(F)F)cc2nc(NC(=O)c3cccnc3)nn12 -0.628%
O=C(Cn1c(=O)c2cccn2c2ccc(F)cc21)N1CCN(c2ccccc2F)CC1 -9.58%
CN1CCN(C(CNC(=O)c2ccccc2F)c2ccc3c(c2)OCO3)CC1 (configuration not stated) 2.11%
COc1ccc(C(=O)N(Cc2cc(OC)c(OC)c(OC)c2)c2ccccn2)cc1 9.24%
COc1ccc(Br)cc1CNC(=O)c1cnc2sc(N3CCCC3)nn2c1=O 9.08%
COc1cccc(C2NC(=O)c3n[nH]c(-c4cccs4)c32)c1 (configuration not stated) -3.38%
Fc1ccc(-n2ncc3c(NCCCn4ccnc4)ncnc32)cc1 26.8%
COc1ccc(-c2cn3nc(N4CCCC(C(=O)Nc5cc(C)ccc5C)C4)sc3n2)cc1 (configuration not stated) -4.38%
COc1cc(NC(=O)NCC2CCN(Cc3ccccc3Cl)CC2)cc(OC)c1OC -2.22%
Cc1cccc(-n2cc(-c3ccccc3)c3c(N4CCC(C)CC4)ncnc32)c1 4.63%
COc1ccc(NC(=O)c2sc3nc(-c4cc5ccc(OC)cc5oc4=O)[nH]c(=O)c3c2C)cc1 3.35%
CCCCN(CC)CCNC(=O)CCn1cnc2onc(-c3ccc(F)cc3)c2c1=O -21%
COc1ccc(-c2nc3sc(CCNC(=O)C(=O)Nc4ccccc4C#N)c(C)n3n2)cc1 4.04%
CCOc1ccc(CNC(=O)c2cc3ccccn3n2)cc1 -5.27%
COc1cccc(-n2c(=O)c3c(C)c(C)sc3n(Cc3ccccc3C#N)c2=O)c1 1.83%
Cc1cccc(-n2c(SCC(=O)Nc3ccc(C)c(C)c3)nc3n[nH]c(C)c3c2=N)c1 35.7%
CCc1cnc2c(c1SC(C(C)=O)C(=O)N(C)C)c(=O)n(C)c(=O)n2C (configuration not stated) 4.47%
COc1ccc(CCNC(=O)c2ccc(Cn3c(SCc4ccccc4)nc4cccnc43)cc2)cc1 9.2%
O=C(CCn1c(=O)c2ccccc2n(CC(=O)Nc2ccc(F)cc2)c1=O)NCCc1ccccc1 11.3%
CCOc1ccccc1NC(=O)C1=C(C)Nc2ncnn2C1c1ccco1 (configuration not stated) -9.68%
Cc1ccc(C(=O)N(Cc2ccco2)c2ccccn2)cc1 -7.76%
COc1ccc(CC(=O)NCC(c2cccs2)S(=O)(=O)c2ccc(F)cc2)cc1 (configuration not stated) 4.08%
Cc1ccc(CNC(=O)c2c(Nc3ccccc3C)sc(C(=O)c3ccc(F)cc3)c2N)cc1 -21.9%
COc1cccc(-c2nn(C)c3sc(C(=O)NCc4ccc(OC)cc4OC)cc23)c1 -14.6%
COc1ccccc1C(=O)Nc1ccc(C(=O)OCc2cc(=O)n3c4c(sc3n2)CCCC4)cc1 -18.5%
CCOc1ccc(C2C(C(N)=O)=C(C)Nc3nc(SCc4ccccc4F)nn32)cc1 (configuration not stated) 3.83%
Cc1ccc(CNC(=O)c2c(Nc3c(C)cccc3C)sc(C(=O)c3ccccc3)c2N)cc1 15.3%
Cc1cccc(NC(=O)Cn2c(=O)n(Cc3ccccc3)c(=O)c3oc4ccccc4c32)c1C 2.93%
CCc1ccc(C2CC(=O)Nc3c2c(=O)nc2c(C)cccn32)cc1 (configuration not stated) 1.6%
CC(C)c1ccc(NC(=O)c2ccc(CN3CC(=O)N4CCCCC4C3=O)cc2)cc1 (configuration not stated) 10.8%
O=C(O)CCn1ccc2cc(S(=O)(=O)N3CCCCCC3)ccc21 0.457%

outcome, inactive:
CCCCOc1ccc(C(=O)NCCc2csc(-c3cccc(F)c3)n2)cc1
Cc1ccc(Cl)cc1NS(=O)(=O)c1ccc2c(c1)NC(=O)CCS2
O=C(Cn1c(=O)nc(-c2ccccc2)c2ccccc21)NCCc1ccc(Cl)cc1
Cc1cc2[nH]c(=O)c(=O)[nH]c2cc1S(=O)(=O)N1CCN(c2cccc(C(F)(F)F)c2)CC1
CCOC(=O)c1ccccc1NC(=O)c1c(C)oc2ncnc(N3CCOCC3)c12
COCCCNC(=O)c1ccc(Cn2c(=O)c3ccccc3n(Cc3ccc(Cl)cc3)c2=O)cc1
COc1cc(NC(=O)c2nn(C)c3c2COc2ccccc2-3)cc(OC)c1OC
O=C(CN1CCN(Cc2ccccc2F)C1=O)NCc1ccccc1
COc1ccccc1NC(=O)c1cnn(-c2ccccc2)c1-n1cccc1
Cc1cc(C)c(NC(=O)C(=O)NCCc2csc(-c3ccc(F)cc3)n2)c(C)c1
CSc1ccc(CCNC(=O)c2csc3c2CCCCC3)cc1
